The other results are listed elsewhere or left out. At the low end of the ranking the order means little.

The test system of the experiment is MYC (p64) + MAX (p21), in MYC:MAX. The experiment is described as follows: protein-binding microarray (anti-MAX antibody). The conditions noted are these: PBM: 15 mM Tris-HCl pH 7.5, 100 mM KCl, 0.075% NP40, 7.5 mM beta-mercaptoethanol, 375 ng/ul BSA, 8 ng/ul poly(dA-dT):(dA-dT), 550 ng complex, 60 min, room …; high values mean tight binding; double strand, one strand shown; sequences stand for … in CCGGC…TTAATAGCTAAGATTACTATATCGACG
For the sequence TGACGAGGCGTA, the binding signal (log2 normalized fluorescence) came to 0.179. TGAACTGCAGTA: the binding signal (log2 normalized fluorescence) was 0.0203. Next, TGAAGCTGTGTA: -0.0331; TGAAAAACTGTA: 0.00768; TGACATAAAGTA: 0.134.

For the sequence TGACCACGGGTA, the binding signal (log2 normalized fluorescence) is 0.358.

With TGACACACTGTA, the binding signal (log2 normalized fluorescence) was 0.432. For the sequence TGAGATAAGGTA, the binding signal (log2 normalized fluorescence) is -0.09. As for ATAATGCGCTTA, the binding signal (log2 normalized fluorescence) was 0.423.

As to TGATACGAGGGA, the binding signal (log2 normalized fluorescence) came to 0.115. On to TGAGCTCTTGTA, for which the binding signal (log2 normalized fluorescence) is -0.104. The same measure for AGATACGCGGTA: 0.252. For TGACGTCACGTA, the binding signal (log2 normalized fluorescence) amounted to 0.246.

As to TGATTGTGCGTA, the binding signal (log2 normalized fluorescence) was 0.0842. Consider TGAATTCCTGTA, for which the binding signal (log2 normalized fluorescence) worked out at 0.0453.

Turning to TGAAGGATAGTA, the binding signal (log2 normalized fluorescence) is 0.047. Next, TGATGAAAGGTA: -0.00378; TGTCACCCGGTA: 0.261. Next, TGAGGTCTTGTA: 0.0507.

On to TGACCAGTCGTA, for which the binding signal (log2 normalized fluorescence) was 0.0688. For TGAACTGACGTA, the binding signal (log2 normalized fluorescence) was found to be 0.117. Next, TGAGATATTGTA: -0.0986; TGACAGGAAGTA: 0.167; TGAGCAAGGGTA: 0.201. Regarding TGATGATAAGTA, the binding signal (log2 normalized fluorescence) was -0.0828.

For TGATGCCGAGTA, the binding signal (log2 normalized fluorescence) stood at 0.0024.

As for TGATGCTCAGTA, the binding signal (log2 normalized fluorescence) came to 0.152.

As to TGACACGTATAA, the binding signal (log2 normalized fluorescence) was 0.512. Next, TGAGGCCTAGTA: 0.0219. Consider TGAAGCTCAGTA, for which the binding signal (log2 normalized fluorescence) was -0.0107.

As for TGACACGTCCAA, the binding signal (log2 normalized fluorescence) was 0.369. Consider TGAGAGTCAGTA, for which the binding signal (log2 normalized fluorescence) worked out at 0.106. In the case of TGAAACGATGTA, the binding signal (log2 normalized fluorescence) was 0.299. As for TGACTAAAAGTA, the binding signal (log2 normalized fluorescence) was determined as 0.0453. TGATACGCGGTC: the binding signal (log2 normalized fluorescence) stood at 0.0753.

As to TAACTCGTGGTA, the binding signal (log2 normalized fluorescence) amounted to 0.792. Turning to TGAATGCGGGTA, the binding signal (log2 normalized fluorescence) came out at 0.103. As to TGATGCTTTGTA, the binding signal (log2 normalized fluorescence) stood at 0.198. For AGAAATCTTGTT, the binding signal (log2 normalized fluorescence) worked out at 0.151. The same measure for TGAGTCCCAGTA: -0.0334; for TGAGAGAACGTA: -0.0341.

For TGATCCATGGTA, the binding signal (log2 normalized fluorescence) worked out at 0.033. Consider TGAGGGGCTGTA, for which the binding signal (log2 normalized fluorescence) is 0.412. The same measure for TGACCCTGCGTA: 0.102; for TAGCACGTGGTA: 0.917; for TGAATGAGCGTA: -0.0492.

Turning to TGACCCGGCGTA, the binding signal (log2 normalized fluorescence) was 0.132.

Consider TGACACGTAGTG, for which the binding signal (log2 normalized fluorescence) stood at 0.396. Turning to TGATTACTTGTA, the binding signal (log2 normalized fluorescence) was 0.0962. Consider TGATCGAAAGTA, for which the binding signal (log2 normalized fluorescence) was -0.157. For the sequence TGACCGGCAGTA, the binding signal (log2 normalized fluorescence) stood at 0.151. Next, TGAATATTAGTA: 0.0425; TGAGGTTCTGTA: -0.0942.

As to TGATATCACGTA, the binding signal (log2 normalized fluorescence) was 0.14. The same measure for TGAGTCCCTGTA: -0.0383; for TGAGGAACTGTA: -0.147. As for TGATGCAGCGTA, the binding signal (log2 normalized fluorescence) worked out at 0.0277. The same measure for TGAGCCAGTGTA: 0.17; for TGAATCCCCGTA: -0.0106; for TGATGTCGTGTA: 0.39. Turning to TGAGTCATAGTA, the binding signal (log2 normalized fluorescence) was found to be 0.0316. On to TGACCTTCGGTA, for which the binding signal (log2 normalized fluorescence) is -0.000527. Regarding TGAAGTAGTGTA, the binding signal (log2 normalized fluorescence) was -0.0724.

On to TGATGCCTAGTA, for which the binding signal (log2 normalized fluorescence) is 0.068. Next, TGAATGCAAGTA: 0.211; AACCACGTGGTA: 0.742; TGACACCCCGTA: 0.283. Take TGAGTACTAGTA: the binding signal (log2 normalized fluorescence) was -0.261.

Regarding TGACACGTGAGG, the binding signal (log2 normalized fluorescence) amounted to 0.702. For AGACATGGGGTA, the binding signal (log2 normalized fluorescence) is 0.458.

For TGAGAGTAAGTA, the binding signal (log2 normalized fluorescence) is -0.116. As to TGAATGCATGTA, the binding signal (log2 normalized fluorescence) worked out at 0.293. TGACACGAATTA: the binding signal (log2 normalized fluorescence) turned out to be 0.413. Take TGATCCCCGGTA: the binding signal (log2 normalized fluorescence) is -0.125. In the case of TGAGGAAATGTA, the binding signal (log2 normalized fluorescence) was -0.124. In the case of TGACCAAATGTA, the binding signal (log2 normalized fluorescence) was determined as 0.145. For the sequence TGACGGCAAGTA, the binding signal (log2 normalized fluorescence) was -0.0545. TGAGCTATAGTA: the binding signal (log2 normalized fluorescence) is -0.0105. As to TGAAACGCCGTA, the binding signal (log2 normalized fluorescence) is 0.289. As for TGATGCAAGGTA, the binding signal (log2 normalized fluorescence) came out at 0.186. As for TGATATTGTGTA, the binding signal (log2 normalized fluorescence) worked out at 0.115. With TGATAACAGGTA, the binding signal (log2 normalized fluorescence) is -0.0157. TGACCGAAAGTA: the binding signal (log2 normalized fluorescence) was -0.112. TGACACGTCAGA: the binding signal (log2 normalized fluorescence) came to 0.387. In the case of TGAACCTTTGTA, the binding signal (log2 normalized fluorescence) was -0.0493.

As to GTGACGATCAGC, the binding signal (log2 normalized fluorescence) came out at 0.409. As to TGATCGTTGGTA, the binding signal (log2 normalized fluorescence) was -0.054. As to TGGCACGTGGCA, the binding signal (log2 normalized fluorescence) was found to be 0.721. Turning to TGAAGATGAGTA, the binding signal (log2 normalized fluorescence) was -0.0701. Take TGACTCTGTGTA: the binding signal (log2 normalized fluorescence) was -0.0698. For the sequence TGCCACGTGCGA, the binding signal (log2 normalized fluorescence) was determined as 0.695. For the sequence TGACTATTCGTA, the binding signal (log2 normalized fluorescence) is -0.0584.

Regarding TCCCACTTGGTA, the binding signal (log2 normalized fluorescence) came out at 0.205.

For TGAGTAGATGTA, the binding signal (log2 normalized fluorescence) worked out at 0.0114. With TGAACGTCCGTA, the binding signal (log2 normalized fluorescence) was -0.0316. The same measure for TGATGATAGGTA: -0.035; for TGATACAGGGTA: -0.0382; for TGCCACTTGGTG: 0.338.

As for TGAACGGGAGTA, the binding signal (log2 normalized fluorescence) stood at 0.0172. In the case of TGACACGTAGGA, the binding signal (log2 normalized fluorescence) was determined as 0.308.

On to TGAGTCTAGGTA, for which the binding signal (log2 normalized fluorescence) is -0.13. For TGAAGCGAAGTA, the binding signal (log2 normalized fluorescence) was -0.0696. As to TGAGACCCAGTA, the binding signal (log2 normalized fluorescence) turned out to be 0.0192. In the case of TGACACGTGCAT, the binding signal (log2 normalized fluorescence) was determined as 0.894.

Take TGATCCGGCGTA: the binding signal (log2 normalized fluorescence) is -0.0199. For the sequence TGATCTCCTGTA, the binding signal (log2 normalized fluorescence) came out at 0.121. Consider TGAACATCCGTA, for which the binding signal (log2 normalized fluorescence) was found to be 0.283. As for TGATTGGACGTA, the binding signal (log2 normalized fluorescence) was -0.101. For TGTCACGAGGTA, the binding signal (log2 normalized fluorescence) is 0.787. For TGAACGCGCGTA, the binding signal (log2 normalized fluorescence) amounted to 0.441. With TGAGCTAATGTA, the binding signal (log2 normalized fluorescence) was 0.0657.

TGAGCTGGTGTA: the binding signal (log2 normalized fluorescence) was -0.111. In the case of TGAAATTCCGTA, the binding signal (log2 normalized fluorescence) is -0.0313. For TGACTGCCGGTA, the binding signal (log2 normalized fluorescence) is -0.0047. For the sequence TGATGGAATGTA, the binding signal (log2 normalized fluorescence) stood at 0.103.

With TGAAGACGAGTA, the binding signal (log2 normalized fluorescence) stood at 0.063.

With TGAGTGACGGTA, the binding signal (log2 normalized fluorescence) amounted to 0.0946. For TGATTAGCTGTA, the binding signal (log2 normalized fluorescence) was -0.109. Consider TGAGCTTAAGTA, for which the binding signal (log2 normalized fluorescence) is -0.045.

For TGACTTATGGTA, the binding signal (log2 normalized fluorescence) was 0.349. Take TGAGATTGCGTA: the binding signal (log2 normalized fluorescence) was found to be 0.0933.

Regarding TGACAGGAGGTA, the binding signal (log2 normalized fluorescence) was found to be 0.255. The same measure for TGACACGTGTCC: 0.926; for TGACATGATGTA: 0.565. The same measure for TGACAAAAAGTA: -0.123; for TGATTTCAAGTA: -0.066; for TCACACGTTTTA: 0.662.

In the case of TGACCTGCAGTA, the binding signal (log2 normalized fluorescence) was found to be 0.156. Regarding TGACTGGTCGTA, the binding signal (log2 normalized fluorescence) came to 0.229.

For TGACACTTCGTA, the binding signal (log2 normalized fluorescence) came to 0.254. Next, TGAATCCGCGTA: 0.159; TGATTCCGTGTA: -0.0723; TGAAAGACAGTA: -0.0398. Turning to TGAGACTATGTA, the binding signal (log2 normalized fluorescence) came out at 0.0235.

In the case of TGATACGAGGTC, the binding signal (log2 normalized fluorescence) was 0.144.

Regarding TGAGACGTAATA, the binding signal (log2 normalized fluorescence) is -0.082. Turning to TGTCACGTGTTC, the binding signal (log2 normalized fluorescence) was 0.848.
